Article PMC4336329 (PLoS ONE, 2015)
The campaign covered roughly 310,000 compounds. About 2,200 (0.71%) showed an effect of 50% or more. The effect is printed as a negative number. The list shows a part of the results. Where no end group is shown, it is not given here.

Biological target: human ether-à-go-go-related gene (hERG) potassium channel (human, UniProt Q12809)
Assay: primary screen, population patch clamp on CHO cells stably expressing hERG

Chain of human ether-à-go-go-related gene (hERG) potassium channel (Q12809 whole entry, looked up): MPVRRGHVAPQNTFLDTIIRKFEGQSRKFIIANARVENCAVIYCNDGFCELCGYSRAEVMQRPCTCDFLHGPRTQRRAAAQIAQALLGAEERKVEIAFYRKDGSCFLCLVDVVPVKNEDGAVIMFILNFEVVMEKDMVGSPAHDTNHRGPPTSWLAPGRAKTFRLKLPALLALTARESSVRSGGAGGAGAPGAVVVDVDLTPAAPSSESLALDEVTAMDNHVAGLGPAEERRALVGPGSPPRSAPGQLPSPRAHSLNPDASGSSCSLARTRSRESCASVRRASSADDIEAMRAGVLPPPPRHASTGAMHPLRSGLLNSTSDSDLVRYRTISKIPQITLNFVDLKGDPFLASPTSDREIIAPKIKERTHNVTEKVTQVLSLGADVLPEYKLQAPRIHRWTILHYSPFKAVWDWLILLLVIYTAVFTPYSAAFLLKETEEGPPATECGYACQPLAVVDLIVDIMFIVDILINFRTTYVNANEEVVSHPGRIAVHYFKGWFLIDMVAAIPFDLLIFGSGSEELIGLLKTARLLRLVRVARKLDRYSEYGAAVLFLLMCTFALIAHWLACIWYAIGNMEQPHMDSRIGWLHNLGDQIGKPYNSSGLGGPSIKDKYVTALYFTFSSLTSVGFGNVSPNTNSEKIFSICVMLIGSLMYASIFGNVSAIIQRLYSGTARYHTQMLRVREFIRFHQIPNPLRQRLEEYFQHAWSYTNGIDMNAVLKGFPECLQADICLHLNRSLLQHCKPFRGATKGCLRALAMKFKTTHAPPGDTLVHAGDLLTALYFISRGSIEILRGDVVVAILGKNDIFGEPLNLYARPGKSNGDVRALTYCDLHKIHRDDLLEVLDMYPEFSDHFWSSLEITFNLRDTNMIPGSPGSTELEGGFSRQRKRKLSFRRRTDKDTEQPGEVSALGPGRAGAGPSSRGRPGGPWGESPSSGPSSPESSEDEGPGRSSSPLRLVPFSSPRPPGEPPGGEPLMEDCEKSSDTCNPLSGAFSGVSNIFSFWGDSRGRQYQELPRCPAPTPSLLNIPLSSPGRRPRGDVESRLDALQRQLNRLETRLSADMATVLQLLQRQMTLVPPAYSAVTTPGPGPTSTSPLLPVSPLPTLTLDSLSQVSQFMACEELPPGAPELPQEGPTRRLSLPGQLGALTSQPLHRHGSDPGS

| Compound | hERG current change (%, negative = inhibition) at 1uM |
| --- | --- |
| Cc1cccc(-n2nnnc2SCC(=O)Nc2cccc(S(N)(=O)=O)c2)c1 | 4.87% |
| Cc1ccc(C)c(N2CCN(C(=O)CCCn3ncn4c(cc5occc54)c3=O)CC2)c1 | 3.5% |
| COc1ccccc1CNC(=O)COC(=O)c1cc(S(=O)(=O)N2CCOCC2)ccc1Cl | 2.74% |
| C=C1c2ccc(C)cc2NC(=O)N1c1ccccc1 | 1.96% |
| C=CCn1c(COc2cccc(C)c2C)nnc1SCC(=O)N1CCN(c2ccccc2)CC1 | -5.3% |
| RKDVY | 17.6% |
| COc1cccc(CNC(=O)c2cccnc2Sc2ccc(Cl)cc2)c1 | 14.2% |
| CC(=O)Nc1cccc(C(=O)OC2CCOC2=O)c1 (centres unmarked) | 9.41% |
| CCc1ccc(NC(=O)NCCCN2CCCC2=O)cc1 | -5.54% |
| COC(=O)c1ccc2c(=O)[nH]c(CSc3nc(C)cs3)nc2c1 | 5.72% |
| COc1ccc(N(CC(=O)NCc2ccco2)S(C)(=O)=O)c(OC)c1 | 7.65% |
| C[C@@H](C(=O)NCCCCCC(=O)O)n1nnc2ccccc2c1=O | 7.31% |
| O=C1C=Cc2ccccc2/C1=C/c1[nH]c(=O)[nH]c1O | 10.3% |
| CC(Oc1ccc(-c2ccccc2)c(F)c1)c1ccn(S(=O)(=O)c2ccc(F)cc2)n1 (centres unmarked) | 10.5% |
| CC(/C=N\NC(=O)Cn1cncn1)=C/c1ccc(C(C)C)cc1 | 2.15% |
| CCOc1cc(CNCCN(C)C)c(Cl)cc1OCC(=O)NCCc1ccccc1.Cl | -6.4% |
| CC(C)C(NS(=O)(=O)c1cccc2nsnc12)C(=O)NCc1ccco1 (centres unmarked) | 10.8% |
| O=C(NNC(=S)NCc1ccc(Cl)cc1)c1ccc(Br)o1 | 19.6% |
| Cc1ccc(S(=O)(=O)/N=C(\CN2CCOCC2)N2CCOCC2)cc1 | 23.3% |
| CN(CC(=O)NCC1CCCCC1)S(=O)(=O)c1ccc(F)cc1 | 11.1% |
| O=C(Nc1cn(-c2ccccc2)nc1-c1ccccc1)c1ccccc1 | 7.18% |
| CC(=O)N1CCC(O)(c2cccc(C(F)(F)F)c2)CC1 | 8.78% |

| Compound | hERG current change (%, negative = inhibition) at 1uM |
| --- | --- |
| CCOC(=O)C(=O)c1csc(NC(=O)COc2ccc(N(C)S(=O)(=O)c3ccc(F)cc3)cc2)n1 | 17% |
| CN(Cc1c(F)cccc1Cl)C(=O)c1ccc(NS(=O)(=O)c2ccc3[nH]c(=O)[nH]c3c2)cc1 | -4.45% |
| CCN1CCN(c2cc(C)nc(-c3ccccc3O)n2)CC1 | -14.7% |
| CC1C(=O)NN=C1C(=O)N/N=C\c1ccc(O)cc1O (centres unmarked) | 4.03% |
| O=C(C[n+]1cccc(CNC(=O)c2ccc(OC(F)F)cc2)c1)Nc1ccc(SC(F)F)cc1.[Cl-] | -3.5% |
| C/C(=N\NC(=O)COc1ccc(C(C)(C)C)cc1)c1ccc2c(c1)OCCO2 | 15.3% |
| O=C(CCc1nc2ccccc2c(=O)[nH]1)Nc1cccc(S(=O)(=O)N2CCOCC2)c1 | -4.92% |
| CC(C)OC(=O)CN1C(=O)c2ccccc2C1=O | 12.6% |
| COc1cccc(NC(=O)Nc2ccc3c(c2)N(C)C(=O)CS3)c1 | 12.6% |
| N#CC1=C(SCC(=O)Nc2ccc(C(=O)O)cc2)NC(=O)CC1c1ccco1 (centres unmarked) | 4.7% |
| CCOC(=O)Cc1csc(SCn2nnc3ccccc3c2=O)n1 | 9.45% |
| Cc1ccc(-n2c(Cc3ccccc3)nnc2SCC(=O)NNC(=O)Cc2ccccc2)cc1 | 11.8% |
| O=c1c2c3nc4ccccc4nc3n(/N=C/c3ccncc3)c2ncn1-c1ccccc1 | 7.9% |
| COc1ccc(-n2nc(C(=O)N(C)C3CCCCC3)c3ccccc3c2=O)c(OC)c1 | 10.6% |
| O=c1cccccc1NN=C1CCCCC1 | 6.1% |
| CCOc1cc(/C=N/NC(=O)NN(C)c2ncc(C(F)(F)F)cc2Cl)ccc1O | -3.15% |
| COC(=O)c1[nH]nc2c1C(=O)N(Cc1ccccc1)C2=O | 11.3% |
| NS(=O)(=O)c1ccc(CCNCC(=O)NCc2ccccc2Cl)cc1.O=C(O)C(=O)O | 4.91% |
| FC(F)(F)c1cc(-c2cccs2)n[nH]1 | 11.5% |
| O=C1CN(C(=O)COC(=O)CNC(=O)c2ccc(Cl)cc2)c2ccccc2N1 | 3.33% |
| Cc1ccc([C@@H]2[C@@H]3C(=O)N(c4ccccc4)C(=O)[C@@H]3[C@]3(C)C(=O)N(Cc4ccccc4)CC(=O)N23)o1 | 11.9% |
| Cc1ccc(NS(=O)(=O)c2ccc(NC(=O)C(C)Sc3ccc(Cl)cc3)cc2)c(C)c1 (centres unmarked) | -2.9% |
